About 150 (0.041%) of roughly 370,000 compounds were called active. Inconclusive results, whose numbers are uncertain, are shown with a selection of clear calls. Calls follow the shape of the dose curve; as a rule, active = well fitted inhibition curve with a large enough effect; inconclusive = small, poorly fitted or top-dose-only effect; inactive = flat fitted curve, though single readings scatter. No potency is given beside an inconclusive call; the fits are too rough.
target: Beta-lactamase (Escherichia coli (strain K12)) (UniProt P00811); test: qHTS Inhibitors of AmpC Beta-Lactamase (assay with detergent); conditions: AmpC hydrolysis of nitrocefin, absorbance 480 nm, 0.01% Triton; series mostly up to 114 µM; also: nearly all actives have a fitted effect of over 25% in size
Chain of UniProt P00811 (P00811 whole entry, looked up): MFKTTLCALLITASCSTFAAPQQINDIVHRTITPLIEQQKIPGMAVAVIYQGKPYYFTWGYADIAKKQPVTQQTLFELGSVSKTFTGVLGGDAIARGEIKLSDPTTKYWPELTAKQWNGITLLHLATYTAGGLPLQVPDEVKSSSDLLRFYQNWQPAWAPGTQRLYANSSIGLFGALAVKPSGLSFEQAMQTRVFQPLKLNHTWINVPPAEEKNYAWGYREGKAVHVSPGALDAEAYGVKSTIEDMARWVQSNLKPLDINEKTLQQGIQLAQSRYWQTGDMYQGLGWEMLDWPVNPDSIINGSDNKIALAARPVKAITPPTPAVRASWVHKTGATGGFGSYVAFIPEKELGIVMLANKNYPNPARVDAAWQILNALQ
How it was run: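 20 mM phosphate pH 7.0 + 0.01% (detergent screen) or 0.0001% Triton X-100; 5.3 nM AmpC reagent; cpd preinc 15 min RT; nitrocefin (800 uM stock) to start; A480 q20 s × 4 min; Activity was normalised to no-enzyme and no-compound control wells.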
Potency is read from the fitted curve at half-maximal effect; tags tell the direction and shape of the fitted curve.

Compound	Potency
Cc1ccc(NC(=O)COc2cccnc2[N+](=O)[O-])cc1S(=O)(=O)N1CCCCC1	inconclusive [inhibitor, full curve, poor fit]
COc1cc(/C=C2\SC(=Nc3ccc(F)cc3)N(c3ccc(F)cc3)C2=O)ccc1OCC(=O)O	inactive
Cc1ccc(S(=O)(=O)c2nnn(CC(=O)Nc3ccccc3C)c2N)cc1	inactive
CC1CCN(c2nc3ccc(C(=O)NCCCN4CCCCC4)cc3s2)CC1	inconclusive [inhibitor, partial curve, poor fit]
CCN(CC1CCCN(CCc2cccc(F)c2)C1)C(=O)c1ccc(CSC)o1 (stereo not drawn)	inconclusive [inhibitor, full curve]
Oc1c(Cl)cc(Cl)cc1C=Nc1cc(C(F)(F)F)ccc1N1CCc2ccccc2C1	inactive
Cc1ccc(C(=O)Nn2c(O)c(C=C3N=c4ccccc4=N3)sc2=S)cc1	inconclusive [inhibitor, partial curve, poor fit]
O=C1CC(c2ccsc2)c2cc3c(cc2N1)OCCO3 (stereo not drawn)	inconclusive [inhibitor, full curve, poor fit]
CCOC(=O)c1ccc(NS(=O)(=O)c2ccc3c(c2)CCN3C(=O)CC)cc1	inactive
Cc1onc(-c2ccccc2)c1CNC(=O)C1COc2ccccc2O1 (stereo not drawn)	inconclusive [inhibitor, single point]
NC(=S)Nc1cccc2cnccc12	inactive
Cc1ccc(C(=O)NCC(c2ccco2)S(=O)(=O)c2ccccc2)cc1C (stereo not drawn)	inactive
CCCc1cc(=O)[nH]c(SCC(=O)NC2CCCCC2)n1	inconclusive [inhibitor, single point]
CCc1cccc(NC(=O)CCNS(=O)(=O)c2ccc3[nH]c(=O)oc3c2)c1	inconclusive [inhibitor, full curve, poor fit]
COc1ccc(N2C(=O)/C(=C\c3ccco3)N=C2SCC(=O)NC(C)C)cc1Cl	inactive
FC(F)(F)c1ccccc1NC(=S)N1CCc2ccccc2C1	inconclusive [inhibitor, single point]
S=c1[nH]nc2c3c4c(sc3ncn12)CCCC4	inconclusive [inhibitor, full curve]
COc1cccc(N2CC(NS(=O)(=O)c3cccs3)CC2=O)c1 (stereo not drawn)	inconclusive [inhibitor, full curve, poor fit]
S=C(NCc1ccc2c(c1)OCO2)NCc1ccc2c(c1)OCO2	inconclusive [inhibitor, full curve, poor fit]
Cc1c(NC(=O)C(C)OC(=O)[C@@H](NC(=O)c2ccccc2)C(C)C)c(=O)n(-c2ccccc2)n1C (stereo partly drawn)	inconclusive [inhibitor, full curve, poor fit]
Cc1ccc(CNC(=O)c2cn(C3CCCC3)c(=O)c3c2c2ccccc2n3C)o1	inactive
COC(=O)C1=C(C)N(c2ccc(OC)c(OC)c2)C(=O)/C1=C\c1cccs1	inconclusive [inhibitor, single point]
CCOc1ccc(CCNC(=O)c2cc(-c3ccccc3)c(N3CCOCC3)s2)cc1OCC	inactive

Compound	Potency
Cc1ccc(S(=O)(=O)N2C(=S)SCC2(C)C)cc1	inconclusive [inhibitor, full curve, poor fit]
COc1ccccc1N1CCN(C(=O)c2ccc3c(c2)N(Cc2cc(C)ccc2C)C(=O)c2ccccc2S3(=O)=O)CC1	inactive
NC(=O)c1ccc(-n2c(CCC(=O)O)ccc2-c2cccs2)cc1	inconclusive [inhibitor, full curve, poor fit]
COc1ccc(CN(C(=O)c2cc(=O)c3ccccc3o2)C2CCS(=O)(=O)C2)cc1OC (stereo not drawn)	inconclusive [inhibitor, full curve, poor fit]
CCCn1c(C(=O)OC)cc2c1ccn2-c1ccc(F)cc1	inactive
O=C1c2ccccc2C(=O)N1Cc1nc(-c2ccccc2)no1	inconclusive [inhibitor, partial curve, poor fit]
COC(=O)c1sccc1NC(=O)COc1ccc(Cl)cc1Cl	inconclusive [inhibitor, full curve]
Cc1ccc(Cl)c(OCC(=O)Nc2ccc(S(=O)(=O)NC3=NCCCCC3)cc2)c1	inconclusive [inhibitor, partial curve]
O=C(CN1CCN(Cc2ccc(Cl)cc2)C1=O)NCCN1CCCC1	inconclusive [inhibitor, full curve, poor fit]
OCCCNc1nc(-c2ccc(Br)cc2)nnc1-c1ccc(Cl)cc1	inconclusive [inhibitor, single point]
CCOC(=O)N1CCc2c(sc(NCc3cccs3)c2C(=O)Nc2cc(Cl)ccc2OC)C1	inactive
Cc1ccc(Cn2nnc3c(=O)n(Cc4ccccc4C)cnc32)cc1	inconclusive [inhibitor, full curve]
COc1cccc(C(=O)Nc2ccc(N(C)C)cc2)c1OC	inconclusive [inhibitor, single point]
COc1cc(OC)c(N(C)S(=O)(=O)c2cccc(C(=O)NC3=NCCS3)c2)cc1Cl	inactive
CC1(C(=O)N2CCC(CC3CC(c4cccc(Br)c4)=NO3)(C(=O)NCC3CCCCC3)CC2)CC1 (stereo not drawn)	inactive
CC1CC(C)CN(C(=O)CSCC(=O)O)C1 (stereo not drawn)	inactive
COc1ccc(C)cc1S(=O)(=O)N1CCN(S(=O)(=O)c2cc(C(=O)O)ccc2C)CC1	inconclusive [inhibitor, full curve]
O=C1C2C3C=CC(C4CC34)C2C(=O)N1/N=C/c1ccc(-c2ccc(Cl)cc2[N+](=O)[O-])o1 (stereo not drawn)	inconclusive [inhibitor, full curve, poor fit]
CN(C)CCSc1nnc2sc3ccccc3n12	inconclusive [inhibitor, full curve]
Cc1cc(C(=O)N2CCN(C(=O)C3CCCO3)CC2)no1 (stereo not drawn)	inconclusive [inhibitor, full curve, poor fit]
Cc1ccnc(NS(=O)(=O)c2ccc(NC(=O)c3ccc(Cl)cc3[N+](=O)[O-])cc2)n1	inconclusive [inhibitor, single point]
O=C(CCc1nc2ccccc2c(=O)[nH]1)Nc1nc(-c2cccs2)cs1	inconclusive [inhibitor, full curve, poor fit]
Cc1ccc2c(CN3CCN(Cc4ccccc4)CC3)cc(=O)oc2c1C	inactive

Compound	Potency
Cc1ccc(N(C)S(=O)(=O)c2cccc(C(=O)N(C)Cc3cnn(-c4ccccc4)c3)c2)cc1	inconclusive [inhibitor, full curve, poor fit]
COCCn1nnnc1C(c1ccc(OC)cc1OC)N1CCN(c2ccccc2F)CC1 (stereo not drawn)	inconclusive [inhibitor, full curve, poor fit]
O=C(COc1ccc(Br)cc1)N1CCN(c2ccccc2)CC1	inconclusive [inhibitor, full curve]
Cc1ccc(C)c(Cn2c(=O)c3c(nc4n3CCN4Cc3ccco3)n(C)c2=O)c1	inactive
CCCn1c(SCC(=O)Nc2nnc(C)s2)nnc1-c1ccoc1C	inconclusive [inhibitor, full curve, poor fit]
CCOc1cc(C(Nc2cc(C)ccn2)c2ccc3cccnc3c2O)ccc1OC (stereo not drawn)	inactive
CC(C)c1nc(CNC(=O)CC2C(=O)NCCN2Cc2ccc(F)cc2Cl)cs1 (stereo not drawn)	inactive
CCOc1ccc(-n2cnnn2)cc1S(=O)(=O)NCc1ccccc1	inconclusive [inhibitor, single point]
COc1ccc(NCc2ccccc2[N+](=O)[O-])cc1OC	inactive
CCOC(=O)c1ccc(-c2ccc3c(=O)c4ccccc4n(C)c3c2)cc1F	inconclusive [inhibitor, full curve, poor fit]
O=C(Cc1cccs1)NCc1ccccc1F	inactive
COc1ccc(C(=O)N2CCN(C3CCCCC3)CC2)c(OC)c1	inconclusive [inhibitor, full curve, poor fit]
O=[N+]([O-])c1ccc(O)c(CN2CCCCCC2)c1	inconclusive [inhibitor, partial curve]
CN1CCN(c2nc3ccccc3c(=O)n2-c2ccccc2)CC1	inconclusive [inhibitor, full curve, poor fit]
COc1ccc(CC2c3cc(OC)c(OC)cc3CC[N+]2(C)CCC(=O)OCCCCCOC(=O)CC[N+]2(C)CCc3cc(OC)c(OC)cc3C2Cc2ccc(OC)c(OC)c2)cc1OC (stereo not drawn)	inconclusive [inhibitor, full curve, poor fit]
O=C(CN1CCCCC1)Nc1ccc(C(F)(F)F)cc1Cl	inactive
C=CCOc1ccccc1CN(CCc1ccccc1)C(=O)c1cccc(S(C)(=O)=O)c1	inconclusive [inhibitor, full curve, poor fit]
CC(=O)[C@H]1CC[C@H]2[C@@H]3CC=C4C[C@@H](O)CC[C@]4(C)[C@H]3CC[C@]12C	inconclusive [inhibitor, full curve, poor fit]
Cc1ccc(Sc2ncccc2[N+](=O)[O-])cc1	inactive
Cc1ccccc1C(=O)N/N=C/c1ccncc1	inactive
O=C(CSCc1ccc(F)cc1)NCc1ccco1	inactive
CCc1ccc(NC(=O)N2CCN(Cc3nc4ccc(C)cc4o3)CC2)cc1	inactive

From PubChem BioAssay AID485294 (National Center for Advancing Translational Sciences (NCATS), 2010)
